The source of these data is patent US20260232828A1, “LIGAND-CYTOTOXICITY DRUG CONJUGATES AND PHARMACEUTICAL USES THEREOF” (HANSOH BIO LLC, priority 2023, published 2026).

On the set-up of data set [1]: species or system Balb/c mice. To be noted: mouse, in vivo, iv, 5 mg/kg. The protocol:
Human CDH17 His Tag protein (Sino biological, catalog number 11360-H08H) was coated onto the MSD bare standard plates (Meso Scale Discovery, catalog number L15XA-3) at a concentration of 4 μg/mL overnight in 4° C. The excess unbound proteins were washed off by PBST buffer and were blocked with 3% BSA in PBS buffer for 1 h at room temperature with a shaking speed of 700 rpm. After washing with PBST for 3 times, standard samples, QC samples, SC samples, and mouse serum samples were added to plates for 1 h incubation at room temperature with a shaking speed of 700 rpm. The final concentrations of the standard samples were ranging from 0.02 ng/mL to 1000 ng/mL. Quality control (QC) samples and sample control (SC) samples were diluted into 4 different concentrations (0.06 ng/ml, 0.244 ng/ml, 3.906 ng/mL, and 250 ng/mL). Mouse serum samples were also diluted to the detection range. The plates were then washed with PBST for 3 times and incubated with sulfo-tag conjugated anti-Fc antibody for 1 h at room temperature with shaking. Finally, 150 μL MSD GOLD Read Buffer B was added to each well and the plate was read by MESO […] (Meso Scale Discovery). The raw data was analyzed on MSD discovery workbench software and the AUC data of the total antibody from mouse serum was calculated by pK solver. The total antibody here is referring to the antibody from ADC, we test both total antibody and ADCs when doing the assay. All the ADC molecules have good pharmacokinetic properties. […] Similar administration, detection, and analysis methods were applied to ADC-21, ADC-24 and ADC-34. Balb/c mice (3 mice per group) were dosed at a concentration of 5 mg/kg by i.v. injection. Serum samples were collected at 13 time points: pre-bleed, 1 h, 4 h, 24 h, 2 day, 3 day, 5 day, 7 day, 9 day, 12 day, 14 day, 17 day and 21 day. MSD bare standard plates were coated at a concentration of 2 μg/mL for both total antibody and ADC PK detection. Quality control (QC) samples and sample control (SC) samples were diluted into 3 different concentrations (0.22 ng/ml, 3.52 ng/ml, and 225 ng/mL). […]

For data set [2], the system named is AsPC1 cells (pancreatic cancer) xenograft. Kind of data set: Efficacy in human pancreatic cancer cell xenograft mouse model. The format is in vivo, female BALB/c nude mice. To be noted: AsPC1 tumor-bearing mice, 6 mg/kg Q4D × 3 intravenously. As to the method: AsPC1 cells (pancreatic cancer) were engrafted subcutaneously into female BALB/c nude mice. When the tumor volume reached approximately 150-200 mm^3, the engrafted mice were randomized into seven groups (5 mice per group). […] The mice were treated with ADCs (6 mg/kg) intravenously Q4D×3. […] The anti-CDH17 antibodies conjugated with compound C also have excellent tumor inhibition (Table 15 and FIG. 11).

A further data set deals with SW480. The experiment in a line: In vitro cytotoxicity of ADCs, SW480 (Cell Titer Glo). To be noted: Table 10; Celltiter Glo (7 days); CDH17 negative line; NA: IC50 not conclusive (no/low toxicity). It counts as cell-based. The protocol:
The ADC immunoconjugates, which had different antibodies targeting CDH17 with different internalization, were analyzed for this Example. CDH17-mediated cell toxicities by these conjugates were tested in cell culture to define the potency of various linker-cytotoxic agent combinations. Different types of cancer cell lines were tested, including colorectal cancer cell line GP2d, NCI-1H716, SK-CO-1, SNU16, ESO26 and SW480; pancreatic cancer cell line AsPC1.
We used two methods (Cell titer glo and Cytation5) to test the cytotoxicity of immunoconjugates in the above-listed cell lines. For the Cytation5 method, cells were collected in log phase growth and distributed into 96-well plates at 5000 cells/well with propidium iodide (abeam, Cat #ab14083) at 500 ng/mL and SPY650-DNA (Cytoskeleton, Inc., Cat #CYSC501) at 1:2000 dilution. Cells were incubated overnight at 37° C. in 5% CO2. The immunoconjugates were diluted with cell culture medium containing 500 ng/mL propidium iodide and 2000-fold diluted SPY650-DNA, then added to each well. The final concentrations of the immunoconjugates were ranging from 0.003 nM to 200 nM. Cytation5 (Agilent) was used to detect the viability of the cells in each well by imaging the plates every 12 h for 96 h. For Cell titer glo method. […] After 5 or 7 days of incubation, the cell viability in each well was determined by Cell Titer Glo 2.0 Assay (Promega). […]
(ATP-based viability assays read luminescence as a measure of living cells.)

Data set [3] has as its system GP2d cells (colorectal cancer) xenograft. Kind of data set: Efficacy in human colorectal cancer cell xenograft mouse model. The following applies: GP2d tumor-bearing mice, 6 mg/kg Q4D × 3 intravenously. The format is in vivo, female BALB/c nude mice. As to the method: GP2d cells (colorectal cancer) were engrafted subcutaneously into female BALB/c nude mice. When the tumor volume reached approximately 100-150 mm^3, the engrafted mice were randomized into seven groups (5 mice per group). […] The mice were treated with ADCs (6 mg/kg) intravenously Q4D×3. In terms of the in vivo efficacy, compared to PBS in the control group, all the ADC molecules have effects in inhibiting the increase of tumors in volume. […] The tumor volumes in ADC-11 group increased after around 30 days of 1st treatment. […] The anti-CDH17 antibodies conjugated with compound C also have an excellent tumor inhibition effect (Table 18, FIG. 12). ADCs conjugated to compound C with different DAR values have been compared in GP2d CDX model. Tumor inhibition has been observed in all the treatment groups.
A general note: Xenograft models place foreign cells or tissue in a host animal.

Details of data set [4]: species or system Balb/c mice. The following applies: in vivo, iv, 5 mg/kg. As to the method:
Human CDH17 His Tag protein (Sino biological, catalog number 11360-H08H) was coated onto the MSD bare standard plates (Meso Scale Discovery, catalog number L15XA-3) at a concentration of 8 μg/mL overnight in 4° C. The excess unbound proteins were washed off by PBST buffer and were blocked with 3% BSA in PBS buffer for 1 h at room temperature with a shaking speed of 700 rpm. After washing with PBST for 3 times, standard samples, QC samples, SC samples, and mouse serum samples were added to plates for 1 h incubation at room temperature with a shaking speed of 700 rpm. The final concentrations of the standard samples were ranging from 0.02 ng/mL to 1000 ng/mL. Quality control (QC) samples and sample control (SC) samples were diluted into 4 different concentrations (0.06 ng/ml, 0.244 ng/ml, 3.906 ng/mL, and 250 ng/mL). Mouse serum samples were also diluted to the detection range. The plates were then washed with PBST for 3 times and incubated with sulfo-tag conjugated anti-compound D antibody for 1 h at room temperature with shaking. Finally, 150 μL MSD GOLD Read Buffer B was added to each well and the plate was read by MESO […] (Meso Scale Discovery). The raw data was analyzed on MSD discovery workbench software and the AUC data of the ADC from mouse serum was calculated by pK solver. The total antibody here is referring to the antibody from ADC, we test both total antibody and ADCs when doing the assay. All the ADC molecules have good pharmacokinetic properties. […] Similar administration, detection, and analysis methods were applied to ADC-21, ADC-24 and ADC-34. Balb/c mice (3 mice per group) were dosed at a concentration of 5 mg/kg by i.v. injection. Serum samples were collected at 13 time points: pre-bleed, 1 h, 4 h, 24 h, 2 day, 3 day, 5 day, 7 day, 9 day, 12 day, 14 day, 17 day and 21 day. MSD bare standard plates were coated at a concentration of 2 μg/mL for both total antibody and ADC PK detection. Quality control (QC) samples and sample control (SC) samples were diluted into 3 different concentrations (0.22 ng/ml, 3.52 ng/ml, and 225 ng/mL). Sulfo-tag conjugated anti-Fc antibody and anti-payload antibody were used to detect the total antibodies and ADCs respectively.

In general, IC50 refers to the point on the concentration scale where inhibition reaches its midpoint.

Like-named read-outs stand apart in the source and are kept apart here.

B1: ADC-06 (conjugate)
heavy: QITLKESGPTLVKPTQTLTLTCTFSGFSLSTSGVGVGWIRQPPGKALEWLALIYWNDDKRYRPSLKNRLTITKDTSKNQVVLTMTNMDPVDTATYYCTHYGVTAPFYNWFDPWGQGTLVTVSS[letters of human IgG1 constant region omitted]
light: DIQMTQSPSSLSASVGDRVTITCRASQSITSYLNWYQQKPGKAPKLLIYAASSLQSGVPSRFSGSGSGTDFTLTISSLQPEDFATYYCQRSYSTLTFGGGTKVEIKRTVAAPSVFIFPPSDEQLKSGTASVVCLLNNFYPREAKVQWKVDNALQSGNSQESVTEQDSKDSTYSLSSTLTLSKADYEKHKVYACEVTHQGLSSPVTKSFNRGEC
For B1, in data set [1], the Cl_obs is given as 0.0010 (mg/kg)/(μg/ml)/h, the “MRT 0-t” value is 41.7 h and the Vss_obs is reported as 0.06 (mg/kg)/(μg/ml). For the same molecule, the “Tumor volume (mm3) Day 28” value in data set [2] worked out at 177.8 ± 16.1 mm3. Besides, the “TGI Day 28” value in data set [2] (6 mg/kg) turned out to be 76.26%. For the same molecule, in the data set with SW480, the IC50 is more than 100 nM. In addition, the “Tumor volume (mm3) Day 49” value in data set [3] came to 364.0 ± 175.0 mm3. Moreover, the “TGI Day 49” value in data set [3] (6 mg/kg) was determined as 92.03%. The Vss_obs in data set [4] (Balb/c, mouse) is given as 0.06 (mg/kg)/(μg/ml). Besides, the “mouse serum sample in which the ADC could be detected” value in data set [4] was 7 days. In data set [4] (mouse), the Cl_obs is listed as 0.0011 (mg/kg)/(μg/ml)/h and the “MRT 0-t” value turned out to be 38.4 h.
